According to patent US11192863B2, “Antiviral compounds and methods” (Biotron Limited, priority 2003, dated 2021):
Where a name gives a salt, the structure may show the parent alone.

Assays:
MHV E protein = MHV E protein (Murine coronavirus, UniProt P0C2R0); settings: halo of growth score; E. coli expressing E protein at 37° C.
HCV p7 protein = HCV p7 protein (Hepatitis C virus genotype 1a, UniProt P27958, L790F); settings: halo of growth score; E. coli expressing p7 at 37° C.

C/C(=C\c1ccccc1)C(=O)NC(=N)N [(a-Methylcinnamoyl)guanidine, (α-Methylcinnamoyl)guanidine]
MHV E protein Inhibition (score) (MHV E protein): 1.0 score | HCV p7 protein Inhibition (score/# of times tested) (HCV p7 protein): 1.14/1 score

NC(N)=NC(=O)c1nc(I)c(N)nc1N [6-Iodoamiloride]
HCV p7 protein Inhibition (score/# of times tested) (HCV p7 protein): 1.13/1 score

CC(C)c1ccc(/C=C/C(=O)NC(=N)N)cc1 [4-isopropylcinnamoylguanidine]
MHV E protein Inhibition (score) (MHV E protein): 4.5 score | HCV p7 protein Inhibition (score/# of times tested) (HCV p7 protein): 2.51/2 score

Cl.NC(N)=NC(=O)c1nc(Cl)c(N)nc1N [Amiloride•HCl, reference compound]
HCV p7 protein Inhibition (score/# of times tested) (HCV p7 protein): 0.5/2 score

N=C(N)NC(=O)/C=C/c1ccccc1C(F)(F)F [2-(trifluoromethyl)cinnamoylguanidine]
MHV E protein Inhibition (score) (MHV E protein): 2.7 score | HCV p7 protein Inhibition (score/# of times tested) (HCV p7 protein): 2.63/3 score

Cl.N=C(N)NC(=O)/C=C/c1ccccc1 [cinnamoylguanidine hydrochloride]
MHV E protein Inhibition (score) (MHV E protein): 1.1 score | HCV p7 protein Inhibition (score/# of times tested) (HCV p7 protein): 1.32/2 score

N=C(N)NC(=O)/C=C/c1ccccc1C1CCCCC1 [2-cyclohexylcinnamoylguanidine]
MHV E protein Inhibition (score) (MHV E protein): 0.9 score | HCV p7 protein Inhibition (score/# of times tested) (HCV p7 protein): 2.26/2 score

N=C(N)NC(=O)/C=C/C=C/c1cccc(Br)c1 [5-(3′-bromophenyl)penta-2,4-dienoylguanidine]
MHV E protein Inhibition (score) (MHV E protein): 0.1 score | HCV p7 protein Inhibition (score/# of times tested) (HCV p7 protein): 1.0/1 score

CCCCC/C=C/c1cccc(/C=C/C(=O)NC(=N)N)c1 [3-(trans-hept-1-en-1-yl)cinnamoylguanidine]
HCV p7 protein Inhibition (score/# of times tested) (HCV p7 protein): 0.50/1 score

NC(N)=NC(=O)c1ccc(Oc2ccccc2)cc1 [(4-Phenoxybenzoyl)guanidine]
MHV E protein Inhibition (score) (MHV E protein): 2.4 score | HCV p7 protein Inhibition (score/# of times tested) (HCV p7 protein): 2.63/1 score

CCc1ccccc1/C=C/C(=O)NC(=N)N [2-ethylcinnamoylguanidine]
MHV E protein Inhibition (score) (MHV E protein): 0.8 score | HCV p7 protein Inhibition (score/# of times tested) (HCV p7 protein): 2.36/2 score

N/C(=N\C(=O)c1nc(Cl)c(N)nc1N)Nc1ccccc1 [Phenamil methanesulfonate salt, N-(3,5-Diamino-6-chloro-pyrazine-2-carbonyl)-N′-phenylguanidine]
HCV p7 protein Inhibition (score/# of times tested) (HCV p7 protein): 0.5/1 score

Cc1ccccc1/C=C/C(=O)NC(=N)N [2-methylcinnamoylguanidine]
MHV E protein Inhibition (score) (MHV E protein): 1.2 score | HCV p7 protein Inhibition (score/# of times tested) (HCV p7 protein): 0.75/1 score

CC(C)(C)c1ccccc1/C=C/C(=O)NC(=N)N [2-t-butylcinnamoylguanidine]
MHV E protein Inhibition (score) (MHV E protein): 3.8 score | HCV p7 protein Inhibition (score/# of times tested) (HCV p7 protein): 2.36/2 score

CCOc1cccc(/C=C/C(=O)NC(=N)N)c1 [3-ethoxycinnamoylguanidine]
MHV E protein Inhibition (score) (MHV E protein): 0.3 score | HCV p7 protein Inhibition (score/# of times tested) (HCV p7 protein): 1.63/1 score

N=C(N)NC(=O)/C=C/c1ccc(O)cc1 [(4-Hydroxycinnamoyl)guanidine]
MHV E protein Inhibition (score) (MHV E protein): 0.7 score | HCV p7 protein Inhibition (score/# of times tested) (HCV p7 protein): 1.63/1 score

N/C(=N\C(=O)c1nc(Cl)c(N)nc1N)NCc1ccc(Cl)cc1Cl [2′4 DichloroBenzamil HCl]
HCV p7 protein Inhibition (score/# of times tested) (HCV p7 protein): 1.88/1 score

N=C(N)NC(=O)/C=C/c1ccc(F)cc1 [4-fluorocinnamoylguanidine]
MHV E protein Inhibition (score) (MHV E protein): 0.2 score | HCV p7 protein Inhibition (score/# of times tested) (HCV p7 protein): 1.86/1 score

N=C(N)NC(=O)/C=C/c1c(Cl)cccc1Cl [2,6-dichlorocinnamoylguanidine]
MHV E protein Inhibition (score) (MHV E protein): 1.2 score | HCV p7 protein Inhibition (score/# of times tested) (HCV p7 protein): 3.00/3 score

C/C(=C\c1ccc(N(C)C)cc1)C(=O)NC(=N)N [[(E)-3-(4-Dimethylaminophenyl)-2-methylacryloyl]guanidine]
HCV p7 protein Inhibition (score/# of times tested) (HCV p7 protein): 0.03/4 score

CCOc1ccc(/C=C/C(=O)NC(=N)N)cc1 [4-ethoxycinnamoylguanidine]
MHV E protein Inhibition (score) (MHV E protein): 0.4 score | HCV p7 protein Inhibition (score/# of times tested) (HCV p7 protein): 1.63/1 score

CC(C)(C)c1ccc(/C=C/C(=O)NC(=N)N)cc1 [4-t-butylcinnamoylguanidine]
MHV E protein Inhibition (score) (MHV E protein): 4.1 score | HCV p7 protein Inhibition (score/# of times tested) (HCV p7 protein): 2.42/2 score

N=C(N)NC(=O)CCc1ccccc1 [(3-phenylpropanoyl)guanidine]
HCV p7 protein Inhibition (score/# of times tested) (HCV p7 protein): 1.0/1 score

N=C(N)NC(=O)/C=C/c1cccc(OC(F)(F)F)c1 [3-(trifluoromethoxy)cinnamoylguanidine]
MHV E protein Inhibition (score) (MHV E protein): 4.1 score | HCV p7 protein Inhibition (score/# of times tested) (HCV p7 protein): 2.26/2 score

NC(N)=NC(=O)c1nc(Cl)c(Nc2ccc(F)cc2)nc1N [5-(4-fluorophenyl)amiloride]
MHV E protein Inhibition (score) (MHV E protein): 0.5 score | HCV p7 protein Inhibition (score/# of times tested) (HCV p7 protein): 1.0/1 score

N=C(N)NC(=O)/C=C/c1ccccc1-c1ccccc1 [2-phenylcinnamoylguanidine]
MHV E protein Inhibition (score) (MHV E protein): 3.4 score | HCV p7 protein Inhibition (score/# of times tested) (HCV p7 protein): 1.00/1 score

N=C(N)NC(=O)/C=C/c1cccc([N+](=O)[O-])c1 [(3-Nitrocinnamoyl)guanidine]
MHV E protein Inhibition (score) (MHV E protein): 0.1 score | HCV p7 protein Inhibition (score/# of times tested) (HCV p7 protein): 1.71/1 score

N=C(N)NC(=O)/C=C/c1ccc(F)c(F)c1 [3,4-difluorocinnamoylguanidine]
MHV E protein Inhibition (score) (MHV E protein): 0.4 score | HCV p7 protein Inhibition (score/# of times tested) (HCV p7 protein): 0.13/1 score

COc1cc(/C=C/C(=O)NC(=N)N)cc(OC)c1OC [3,4,5-trimethoxycinnamoylguanidine]
MHV E protein Inhibition (score) (MHV E protein): 0.1 score | HCV p7 protein Inhibition (score/# of times tested) (HCV p7 protein): 0.71/1 score

NC(N)=NC(=O)/C=C/c1ccc(Br)cc1 [(4-Bromocinnamoyl)guanidine]
MHV E protein Inhibition (score) (MHV E protein): 1.8 score | HCV p7 protein Inhibition (score/# of times tested) (HCV p7 protein): 3.47/4 score

N=C(NC(=O)c1ccc2cc(O)ccc2c1)Nc1ccccc1 [N-(6-Hydroxy-2-napthoyl)-N′-phenylguanidine]
HCV p7 protein Inhibition (score/# of times tested) (HCV p7 protein): 1.38/1 score

N=C(N)NC(=O)/C=C/c1ccc2c(c1)OCO2 [3,4-(methylenedioxy)cinnamoylguanidine]
MHV E protein Inhibition (score) (MHV E protein): 0.3 score | HCV p7 protein Inhibition (score/# of times tested) (HCV p7 protein): 1.13/1 score

N=C(N)NC(=O)/C=C/c1ccc2ccccc2c1 [3-(2-napthyl)acryloylguanidine]
MHV E protein Inhibition (score) (MHV E protein): 2.8 score | HCV p7 protein Inhibition (score/# of times tested) (HCV p7 protein): 1.93/2 score

N=C(N)NC(=O)/C=C/c1ccccc1[N+](=O)[O-] [(2-Nitrocinnamoyl)guanidine]
HCV p7 protein Inhibition (score/# of times tested) (HCV p7 protein): 1.14/1 score

N=C(NC(=O)/C=C/c1ccccc1)Nc1ccccc1 [N-(cinnamoyl)-N′phenylguanidine, N-(cinnamoyl)-N′-phenylguanidine]
HCV p7 protein Inhibition (score/# of times tested) (HCV p7 protein): 2.13/1 score

N=C(N)NC(=O)/C=C/c1cc(Br)ccc1F [5-bromo-2-fluorocinnamoylguanidine]
MHV E protein Inhibition (score) (MHV E protein): 2.1 score | HCV p7 protein Inhibition (score/# of times tested) (HCV p7 protein): 3.73/6 score

N=C(N)NC(=O)/C=C/c1ccccc1Br [(2-Bromocinnamoyl)guanidine]
MHV E protein Inhibition (score) (MHV E protein): 1.4 score | HCV p7 protein Inhibition (score/# of times tested) (HCV p7 protein): 3.00/3 score

CC(C)(C)c1cccc(/C=C/C(=O)NC(=N)N)c1 [3-t-butylcinnamoylguanidine]
MHV E protein Inhibition (score) (MHV E protein): 4.0 score | HCV p7 protein Inhibition (score/# of times tested) (HCV p7 protein): 2.23/2 score

N=C(N)NC(=O)/C=C/c1cccc2ccccc12 [trans-3-(1-napthyl)acryloylguanidine]
MHV E protein Inhibition (score) (MHV E protein): 2.8 score | HCV p7 protein Inhibition (score/# of times tested) (HCV p7 protein): 2.44/2 score

N=C(N)NC(=O)/C=C/c1ccccc1F [2-fluorocinnamoylguanidine]
MHV E protein Inhibition (score) (MHV E protein): 0.8 score | HCV p7 protein Inhibition (score/# of times tested) (HCV p7 protein): 1.0/1 score

N=C(N)NC(=O)/C=C/c1ccc([N+](=O)[O-])cc1 [(4-Nitrocinnamoyl)guanidine]
HCV p7 protein Inhibition (score/# of times tested) (HCV p7 protein): 0.25/1 score

N=C(N)NC(=O)COc1ccc(Cl)cc1 [[(4-Chlorophenoxy-acetyl]guanidine, (4-Chlorophenoxy-acetyl)guanidine]
HCV p7 protein Inhibition (score/# of times tested) (HCV p7 protein): 1.0/1 score

N=C(N)NC(=O)/C=C/c1c(F)cccc1Cl [2-chloro-6-fluorocinnamoylguanidine]
HCV p7 protein Inhibition (score/# of times tested) (HCV p7 protein): 0.88/1 score

N=C(N)NC(=O)/C=C/c1ccco1 [(2-Furanacryloyl)guanidine]
HCV p7 protein Inhibition (score/# of times tested) (HCV p7 protein): 1.38/1 score

N=C(N)NC(=O)/C=C/c1ccoc1 [trans-3-Furanacryoylguanidine, trans-3-furanacryoylguanidine]
HCV p7 protein Inhibition (score/# of times tested) (HCV p7 protein): 1.38/1 score

N=C(N)NC(=O)Cc1ccc2ccccc2c1 [2-(2-napthyl)acetoylguanidine]
MHV E protein Inhibition (score) (MHV E protein): 0.4 score

N/C(=N\C(=O)c1nc(Cl)c(N)nc1N)NCc1ccccc1 [Benzamil hydrochloride, N-Benzyl-N′-(3,5-diamino-6-chloro-pyrzine-2-carbonyl)-guanidine]
HCV p7 protein Inhibition (score/# of times tested) (HCV p7 protein): 2.0/1 score

N=C(N)NC(=O)/C=C/c1ccc(-c2ccccc2)cc1 [4-phenylcinnamoylguanidine]
HCV p7 protein Inhibition (score/# of times tested) (HCV p7 protein): 1.5/1 score
